# In the supplement of paper PMC8728848:
# Some of the results follow.
# B1: Epa15 (Candida glabrata) (protein)
# chain: MGSSHHHHHHSSGLVPRGSHMASDPTTFPLGCSPEFTKTKKGLSMELYRYDYLPPGSYPCWDSAYLNPSYPRTGYKAKKLIATVDGVSGDINFKFNPKFGCKAIPDYLPSNFNYHEPITITNFTMILYGYFMPKTTAFHTFYVTADDLLFMNFGAGNAFDCCRREETADKFGNYAAYSVWGKKSLKNELTVYLHTGVYYPIRLFYNNRDYIAQLDIRFKTEHSNAIITNFTDYFYSVDDSSLGCPGLI
# Assays:
# Experiment in all cases: glycan array binding signal (z-score within array); higher = stronger binding
# Conditions in all cases: glycan notation: IUPAC condensed, linker removed
# [1] = target: Kdn(a2-3)Gal(b1-4)[Fuc(a1-3)]GlcNAc
# Outline: (§1)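 Negative Z-scores can be read as non-binding. The Z-score is calculated within each array and then averaged across arrays of one protein sequence at different concentrations or buffers and across linkers. Arrays, 3228 in all, were curated from the Consortium for Functional Glycomics database and kept only where the protein sequence was available.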
# Kdn(a2-6)Gal(b1-4)GlcNAc = target: Kdn(a2-6)Gal(b1-4)GlcNAc
# Outline: as §1
# [2] = target: Man(a1-2)Man(a1-2)Man(a1-3)Man
# Outline: as §1
# [3] = target: Man(a1-2)Man(a1-2)Man(a1-3)[Man(a1-2)Man(a1-3)[Man(a1-2)Man(a1-6)]Man(a1-6)]Man(b1-4)GlcNAc(b1-4)GlcNAc
# Outline: as §1
# [4] = target: Man(a1-2)Man(a1-2)Man(a1-3)[Man(a1-2)Man(a1-6)[Man(a1-3)]Man(a1-6)]Man(b1-4)GlcNAc(b1-4)GlcNAc
# Outline: as §1
# [5] = target: Man(a1-2)Man(a1-2)Man(a1-6)[Man(a1-3)]Man
# Outline: as §1
# Man(a1-2)Man(a1-3)Man = target: Man(a1-2)Man(a1-3)Man
# Outline: as §1
# [6] = target: Man(a1-2)Man(a1-3)[Man(a1-2)Man(a1-6)]Man
# Outline: as §1
# [7] = target: Man(a1-2)Man(a1-3)[Man(a1-2)Man(a1-6)]Man(a1-6)[Man(a1-2)Man(a1-2)Man(a1-3)]Man
# Outline: as §1
# [8] = target: Man(a1-2)Man(a1-3)[Man(a1-2)Man(a1-6)]Man(a1-6)[Man(a1-2)Man(a1-2)Man(a1-3)]Man(b1-4)GlcNAc(b1-4)GlcNAc
# Outline: as §1
# [9] = target: Man(a1-2)Man(a1-3)[Man(a1-3)[Man(a1-6)]Man(a1-6)]Man(b1-4)GlcNAc(b1-4)GlcNAc
# Outline: as §1
# [10] = target: Man(a1-2)Man(a1-3)[Man(a1-6)]Man(a1-6)[Man(a1-2)Man(a1-3)]Man(b1-4)GlcNAc(b1-4)GlcNAc
# Outline: as §1
# [11] = target: Man(a1-2)Man(a1-6)[Man(a1-3)]Man(a1-6)[Man(a1-2)Man(a1-2)Man(a1-3)]Man
# Outline: as §1
# [12] = target: Man(a1-2)Man(a1-6)[Man(a1-3)]Man(a1-6)[Man(a1-2)Man(a1-2)Man(a1-3)]Man(b1-4)GlcNAc(b1-4)GlcNAc
# Outline: as §1
# Man(a1-3)[Man(a1-6)]Man = target: Man(a1-3)[Man(a1-6)]Man
# Outline: as §1
# [13] = target: Man(a1-3)[Man(a1-6)]Man(a1-6)[Man(a1-2)Man(a1-3)]Man(b1-4)GlcNAc(b1-4)GlcNAc
# Outline: as §1
# [14] = target: Man(a1-3)[Man(a1-6)]Man(a1-6)[Man(a1-3)]Man
# Outline: as §1
# [15] = target: Man(a1-3)[Man(a1-6)]Man(a1-6)[Man(a1-3)]Man(b1-4)GlcNAc(b1-4)GlcNAc
# Outline: as §1
# [16] = target: Man(a1-3)[Man(a1-6)]Man(b1-4)GlcNAc(b1-4)GlcNAc
# Outline: as §1
# [17] = target: Man(a1-3)[Man(a1-6)]Man(b1-4)GlcNAc(b1-4)[Fuc(a1-6)]GlcNAc
# Outline: as §1
# Man(a1-6)Man = target: Man(a1-6)Man
# Outline: as §1
# Man(b1-4)GlcNAc = target: Man(b1-4)GlcNAc
# Outline: as §1
# MurNAc(b1-4)GlcNAc = target: MurNAc(b1-4)GlcNAc
# Outline: as §1
# Neu5Ac(a2-3)Gal = target: Neu5Ac(a2-3)Gal
# Outline: as §1
# [18] = target: Neu5Ac(a2-3)Gal(b1-3)GalNAc
# Outline: as §1
# [19] = target: Neu5Ac(a2-3)Gal(b1-3)GalNAc(b1-3)Gal(a1-4)Gal(b1-4)Glc
# Outline: as §1
# [20] = target: Neu5Ac(a2-3)Gal(b1-3)GalNAc(b1-4)Gal(b1-4)Glc
# Outline: as §1
# [21] = target: Neu5Ac(a2-3)Gal(b1-3)GalNAc(b1-4)[Neu5Ac(a2-3)]Gal(b1-4)Glc
# Outline: as §1
# [22] = target: Neu5Ac(a2-3)Gal(b1-3)GalNAc(b1-4)[Neu5Ac(a2-8)Neu5Ac(a2-3)]Gal(b1-4)Glc
# Outline: as §1
# [23] = target: Neu5Ac(a2-3)Gal(b1-3)GalNAc6S
# Outline: as §1
# [24] = target: Neu5Ac(a2-3)Gal(b1-3)GlcNAc
# Outline: as §1
# [25] = target: Neu5Ac(a2-3)Gal(b1-3)GlcNAc(b1-2)Man
# Outline: as §1
# [26] = target: Neu5Ac(a2-3)Gal(b1-3)GlcNAc(b1-2)Man(a1-3)[GlcNAc(b1-4)][Neu5Ac(a2-3)Gal(b1-3)GlcNAc(b1-2)Man(a1-6)]Man(b1-4)GlcNAc(b1-4)GlcNAc
# Outline: as §1
# [27] = target: Neu5Ac(a2-3)Gal(b1-3)GlcNAc(b1-2)Man(a1-3)[Neu5Ac(a2-3)Gal(b1-3)GlcNAc(b1-2)Man(a1-6)]Man(b1-4)GlcNAc(b1-4)GlcNAc
# Outline: as §1
# [28] = target: Neu5Ac(a2-3)Gal(b1-3)GlcNAc(b1-2)[Neu5Ac(a2-3)Gal(b1-3)GlcNAc(b1-4)]Man(a1-6)[Neu5Ac(a2-3)Gal(b1-3)GlcNAc(b1-2)Man(a1-3)]Man(b1-4)GlcNAc(b1-4)GlcNAc
# Outline: as §1
# [29] = target: Neu5Ac(a2-3)Gal(b1-3)GlcNAc(b1-3)Gal(b1-3)GlcNAc
# Outline: as §1
# [30] = target: Neu5Ac(a2-3)Gal(b1-3)GlcNAc(b1-3)Gal(b1-4)GlcNAc
# Outline: as §1
# [31] = target: Neu5Ac(a2-3)Gal(b1-3)GlcNAc(b1-3)GalNAc
# Outline: as §1
binder,measurement,setting,value
B1,glycan array binding signal (z-score),[1],0.252
same,glycan array binding signal (z-score),Kdn(a2-6)Gal(b1-4)GlcNAc,-0.301
same,glycan array binding signal (z-score),[2],-0.485
same,glycan array binding signal (z-score),[3],-0.135
same,glycan array binding signal (z-score),[4],-0.285
same,glycan array binding signal (z-score),[5],-0.411
same,glycan array binding signal (z-score),Man(a1-2)Man(a1-3)Man,-0.462
same,glycan array binding signal (z-score),[6],-0.429
same,glycan array binding signal (z-score),[7],-0.495
same,glycan array binding signal (z-score),[8],-0.458
same,glycan array binding signal (z-score),[9],-0.277
same,glycan array binding signal (z-score),[10],-0.12
same,glycan array binding signal (z-score),[11],-0.637
same,glycan array binding signal (z-score),[12],-0.24
same,glycan array binding signal (z-score),Man(a1-3)[Man(a1-6)]Man,-0.303
same,glycan array binding signal (z-score),[13],0.517
same,glycan array binding signal (z-score),[14],-0.406
same,glycan array binding signal (z-score),[15],-0.333
same,glycan array binding signal (z-score),[16],-0.452
same,glycan array binding signal (z-score),[17],0.402
same,glycan array binding signal (z-score),Man(a1-6)Man,-0.374
same,glycan array binding signal (z-score),Man(b1-4)GlcNAc,-0.32
same,glycan array binding signal (z-score),MurNAc(b1-4)GlcNAc,-0.569
same,glycan array binding signal (z-score),Neu5Ac(a2-3)Gal,-0.522
same,glycan array binding signal (z-score),[18],-0.48
same,glycan array binding signal (z-score),[19],-0.457
same,glycan array binding signal (z-score),[20],-0.484
same,glycan array binding signal (z-score),[21],-0.467
same,glycan array binding signal (z-score),[22],-0.493
same,glycan array binding signal (z-score),[23],-0.387
same,glycan array binding signal (z-score),[24],-0.306
same,glycan array binding signal (z-score),[25],-0.686
same,glycan array binding signal (z-score),[26],0.145
same,glycan array binding signal (z-score),[27],0.415
same,glycan array binding signal (z-score),[28],-0.226
same,glycan array binding signal (z-score),[29],-0.528
same,glycan array binding signal (z-score),[30],-0.404
same,glycan array binding signal (z-score),[31],-0.465
